Measurements as given in the antibiotic and cytotoxicity screens of Wong et al. (2023).
Some of the results follow.

What was measured:
HSkMC = human skeletal muscle cells; test: cytotoxicity call (relative viability < 0.9); details: 10 µM
HepG2 = test: cytotoxicity call (relative viability < 0.9); details: 10 µM
S. aureus RN4220 = test: growth inhibition call (relative growth <= 0.2); details: 50 µM

SMILES	cytotoxicity call (HSkMC)	cytotoxicity call (HepG2)	growth inhibition call (S. aureus RN4220)
C[C@@H]1CCCCO[C@H](CN(C)C(=O)CCC(F)(F)F)[C@@H](C)CN([C@H](C)CO)C(=O)c2cc(NS(=O)(=O)c3ccc(Cl)cc3)ccc2O1	inactive	inactive	inactive
C[C@H]1CN([C@@H](C)CO)C(=O)c2cc(NS(C)(=O)=O)ccc2O[C@H]1CN(C)C(=O)NC1CCCCC1	inactive	inactive	inactive
C[C@H]1[C@H](C)CC[C@]2(C(=O)O[C@@H]3O[C@H](CO[C@@H]4O[C@H](CO)[C@@H](O[C@@H]5O[C@@H](C)[C@H](O)[C@@H](O)[C@H]5O)[C@H](O)[C@H]4O)[C@@H](O)[C@H](O)[C@H]3O)CC[C@]3(C)C(=CC[C@@H]4[C@@]5(C)C[C@@H](O)[C@H](O)[C@@](C)(CO)[C@@H]5[C@H](O)C[C@]43C)[C@H]12	inactive	inactive	inactive
COc1ccc(NC(=O)Nc2ccc3c(c2)C(=O)N([C@@H](C)CO)C[C@H](C)[C@@H](CN(C)S(=O)(=O)c2ccc(C)cc2)OCCCC[C@@H](C)O3)cc1	inactive	active	inactive
C[C@@H]1CCCCO[C@@H](CN(C)CC2CCCCC2)[C@H](C)CN([C@H](C)CO)C(=O)c2cc(NS(=O)(=O)c3cccs3)ccc2O1	inactive	inactive	inactive
C[C@@H]1CN([C@@H](C)CO)C(=O)Cc2cc(NC(=O)Cc3cn(C)c4ccccc34)ccc2O[C@H]1CN(C)Cc1ccc(Oc2ccccc2)cc1	inactive	active	inactive
C[C@H](CO)N1C[C@H](C)[C@H](CN(C)S(=O)(=O)c2cn(C)cn2)Oc2c(NC(=O)NC3CCCCC3)cccc2C1=O	inactive	inactive	inactive
C[C@H](CO)N1C[C@H](C)[C@H](CN(C)Cc2ccc(C(F)(F)F)cc2)OCCCC[C@H](C)Oc2ccc(NS(=O)(=O)c3ccc(Cl)cc3)cc2C1=O	active	active	inactive
CC(C)NC(=O)N(C)C[C@H]1Oc2ccc(NC(=O)Cn3cnnn3)cc2CC(=O)N([C@@H](C)CO)C[C@@H]1C	inactive	inactive	inactive
O=C(C[C@@H]1CC[C@H]2[C@@H](COC[C@H](O)CN2C(=O)Nc2ccc(F)cc2)O1)NCCCN1CCOCC1	inactive	inactive	inactive
COc1ccc(S(=O)(=O)N(C)C[C@@H]2Oc3ccc(NC(=O)Cn4cnnn4)cc3C(=O)N([C@@H](C)CO)C[C@H]2C)cc1	inactive	inactive	inactive
C=CC[C@@H](CC(=O)N[C@@H](CO)Cc1ccccc1)C(=O)NC[C@H](OC(=O)[C@@H](CC=C)Cc1ccc(F)cc1)c1ccccc1	inactive	inactive	inactive
COC(=O)CCCCCCC(=O)N/N=C/[C@H](O)[C@@H](O)[C@H](O[C@@H]1O[C@H](CO)[C@H](O)[C@H](O)[C@H]1O)[C@H](O)CO	inactive	inactive	inactive
CC(C)CC#Cc1cnc2c(c1)C(=O)N([C@H](C)CO)C[C@@H](C)[C@H](CN(C)C(=O)CN1CCOCC1)O2	inactive	inactive	inactive
O=C(O)c1cncc(C(=O)O)c1	inactive	inactive	inactive
COc1ccccc1C#Cc1ccc2c(c1)O[C@@H](CN(C)Cc1ccncc1)[C@H](C)CN([C@@H](C)CO)S2(=O)=O	active	inactive	inactive
COc1ccc(NC(=O)Nc2ccc3c(c2)C(=O)N([C@H](C)CO)C[C@H](C)[C@@H](CN(C)Cc2ccccc2)OCCCC[C@H](C)O3)cc1	inactive	inactive	inactive

SMILES	cytotoxicity call (HSkMC)	cytotoxicity call (HepG2)	growth inhibition call (S. aureus RN4220)
C[C@@H]1CCCCO[C@@H](CN(C)Cc2ccncc2)[C@@H](C)CN([C@@H](C)CO)C(=O)c2cc(NC(=O)NC3CCCCC3)ccc2O1	inactive	inactive	inactive
C[C@H](CO)N1C[C@H](C)[C@H](CN(C)Cc2ccc3c(c2)OCO3)Oc2ccc(NC(=O)c3ccncc3)cc2C1=O	inactive	inactive	inactive
C[C@H](CO)N1C[C@H](C)[C@H](CN(C)Cc2ccc(C(F)(F)F)cc2)OCCCC[C@H](C)Oc2ccc(NC(=O)Nc3ccccc3)cc2C1=O	inactive	active	inactive
C[C@@H]1CN([C@H](C)CO)C(=O)c2cc(NC(=O)Nc3ccc(C(F)(F)F)cc3)ccc2O[C@H]1CN(C)S(=O)(=O)c1ccc(Cl)cc1	inactive	active	inactive
CN1CCN(C(=O)C[C@@H]2CC[C@H]3[C@@H](COC[C@@H](O)CN3C(=O)Nc3cc(Cl)cc(Cl)c3)O2)CC1	inactive	inactive	inactive
C[C@H]1CCCCO[C@@H](CN(C)C(=O)Nc2ccccc2)[C@@H](C)CN([C@@H](C)CO)C(=O)c2cc(NC(=O)Nc3ccc(C(F)(F)F)cc3)ccc2O1	inactive	inactive	inactive
CN(C)CC(=O)N1[C@@H]2Cn3c(ccc(C4=CCCC4)c3=O)[C@H]1[C@@H](C(=O)NCC1CC1)[C@@H]2CO	inactive	inactive	inactive
Cc1noc(C)c1S(=O)(=O)Nc1ccc2c(c1)CC(=O)N([C@@H](C)CO)C[C@H](C)[C@H](CN(C)S(=O)(=O)c1cccs1)O2	inactive	inactive	inactive
C[C@@H]1CN([C@H](C)CO)C(=O)Cc2cc(NS(C)(=O)=O)ccc2O[C@H]1CN(C)C(=O)Nc1ccc2c(c1)OCO2	inactive	inactive	inactive
Cc1ccc(S(=O)(=O)Nc2ccc3c(c2)C(=O)N([C@H](C)CO)C[C@@H](C)[C@@H](CN(C)Cc2ccccc2)OCCCC[C@H](C)O3)cc1	inactive	inactive	inactive
C[C@@H]1CN([C@H](C)CO)C(=O)c2cccc(NC(=O)C3CCOCC3)c2O[C@@H]1CN(C)C(=O)Nc1ccc2c(c1)OCO2	inactive	inactive	inactive
CO[C@H]1O[C@H](CO)[C@@H](OC(=O)Nc2ccccc2)[C@@H]2OC(=O)[C@H](Cc3cccc(Br)c3)C/C=C/C[C@@H](Cc3cccc(Br)c3)C(=O)O[C@@H]12	inactive	inactive	inactive
C[C@H](CO)N1C[C@H](C)[C@H](CN(C)C(=O)Nc2ccccc2)OCCCC[C@H](C)Oc2ccc(NC(=O)Nc3cccc4ccccc34)cc2C1=O	inactive	inactive	inactive
C[C@@H]1CCCCO[C@H](CN(C)S(=O)(=O)c2ccccc2)[C@@H](C)CN([C@H](C)CO)C(=O)c2cc(NC(=O)C3CCCCC3)ccc2O1	inactive	inactive	inactive
C[C@@H]1CN([C@@H](C)CO)C(=O)c2cc(NS(C)(=O)=O)ccc2O[C@H]1CN(C)S(C)(=O)=O	inactive	inactive	inactive
C[C@H](CO)N1C[C@H](C)[C@@H](CN(C)Cc2ccccc2)OCCCC[C@H](C)Oc2ccc(NC(=O)Cc3ccccc3)cc2C1=O	inactive	inactive	inactive
